# Data from a collection of fitness landscapes (doi:10.1126/science.1257360).
# The other results are listed elsewhere or left out.
# B1: PhoQ; a variant is named by its letters at X, in order, P23837 (parent)
# chain: MKKLLRLFFPLSLRVRFLLATAAVVLVLSLAYGMVALIGYSVSFDKTTFRLLRGESNLFYTLAKWENNKLHVELPENIDKQSPTMTLIYDENGQLLWAQRDVPWLMKMIQPDWLKSNGFHEIEADVNDTSLLLSGDHSIQQQLQEVREDDDDAEMTHSVAVNVYPATSRMPKLTIVVVDTIPVELKSSYMVWSWFIYVLSANLLLVIPLLWVAAWWSLRPIEALAKEVRELEEHNRELLNPATTRELTSLVRNLNRLLKSERERYDKYRTTLTDLTHSLKTPLXXLQXXLRSLRSEKMSVSDAEPVMLEQISRISQQIGYYLHRASMRGGTLLSRELHPVAPLLDNLTSALNKVYQRKGVNISLDISPEISFVGEQNDFVEVMGNVLDNACKYCLEFVEISARQTDEHLYIVVEDDGPGIPLSKREVIFDRGQRVDTLRPGQGVGLAVAREITEQYEGKIVAGESMLGGARMEVIFGRQHSAPKDE
# Variants of: B1
# Experiment: enrichment ratio after two sorts for PhoP signalling (ratio (wild type AVST 3.29)); higher = more functional
# Details: with PhoP (E. coli)
row,Variant,enrichment ratio
1,RQNR,≤ 0.25
2,GARK,≤ 0.25
3,KTLT,≤ 0.25
4,TDLK,1.35
5,TYRP,≤ 0.25
6,DDRI,≤ 0.25
7,PFHE,≤ 0.25
8,YSRK,≤ 0.25
9,SETG,9.95
10,RFDK,≤ 0.25
11,WDIE,≤ 0.25
12,QTWA,≤ 0.25
13,ATEH,≤ 0.25
14,YDGM,≤ 0.25
15,EIMD,≤ 0.25
16,YCDL,≤ 0.25
17,IKRG,≤ 0.25
18,FHNT,≤ 0.25
19,IYQM,≤ 0.25
20,DTVD,≤ 0.25
21,ECGF,≤ 0.25
22,GNVL,10.9
23,LMYC,≤ 0.25
24,PWLV,≤ 0.25
25,YVKK,≤ 0.25

row,Variant,enrichment ratio
1,KPVS,≤ 0.25
2,RCER,≤ 0.25
3,MAAI,≤ 0.25
4,VKGL,≤ 0.25
5,ILNT,≤ 0.25
6,WTYL,≤ 0.25
7,LHWP,≤ 0.25
8,WSEV,≤ 0.25
9,FPVR,≤ 0.25
10,TIAN,19.6
11,TFTE,≤ 0.25
12,VIFF,≤ 0.25
13,MHQA,≤ 0.25
14,NYIG,≤ 0.25
15,ADDK,≤ 0.25
16,MPSE,≤ 0.25
17,EKIT,≤ 0.25
18,KSTA,≤ 0.25
19,DMQS,≤ 0.25
20,TQCT,12.5
21,WDMM,≤ 0.25
22,DHKM,≤ 0.25
23,LFEA,≤ 0.25
24,ACAA,6.58
25,MAIT,≤ 0.25

row,Variant,enrichment ratio
1,GQTF,≤ 0.25
2,SHSQ,≤ 0.25
3,KCHL,≤ 0.25
4,TGLV,12.3
5,FPKM,≤ 0.25
6,NLSQ,≤ 0.25
7,DKTK,≤ 0.25
8,FACC,≤ 0.25
9,PLGD,≤ 0.25
10,VKIR,≤ 0.25
11,APRI,≤ 0.25
12,MQLC,1.67
13,QSPF,≤ 0.25
14,PCRV,≤ 0.25
15,EVQN,≤ 0.25
16,HDAL,≤ 0.25
17,EFYQ,≤ 0.25
18,SNFR,≤ 0.25
19,VAKI,≤ 0.25
20,SYVS,≤ 0.25
21,MTGW,≤ 0.25
22,KAAG,≤ 0.25
23,MDGW,≤ 0.25
24,RFHS,≤ 0.25
25,FVPK,≤ 0.25

row,Variant,enrichment ratio
1,TGHV,16.1
2,VMQT,≤ 0.25
3,RTTT,≤ 0.25
4,TPYM,≤ 0.25
5,FIDL,≤ 0.25
6,YTCS,≤ 0.25
7,AILL,4.86
8,PNTV,≤ 0.25
9,EPMY,≤ 0.25
10,ALRM,≤ 0.25
11,GMLH,≤ 0.25
12,LCHR,≤ 0.25
13,QYCW,≤ 0.25
14,WVKW,≤ 0.25
15,RLLF,≤ 0.25
16,WEAS,≤ 0.25
17,AADR,≤ 0.25
18,FCVV,≤ 0.25
19,VKKT,≤ 0.25
20,ISTP,≤ 0.25
21,FTVI,≤ 0.25
22,TSAK,≤ 0.25
23,TAVP,≤ 0.25
24,NIAG,≤ 0.25
25,QGCQ,≤ 0.25

row,Variant,enrichment ratio
1,LWFW,≤ 0.25
2,PKYF,≤ 0.25
3,AQTV,7.08
4,TAGL,12.4
5,YYQP,≤ 0.25
6,PHSN,≤ 0.25
7,NGYH,≤ 0.25
8,RERS,≤ 0.25
9,ISYA,≤ 0.25
10,YDWN,≤ 0.25
11,NYPP,≤ 0.25
12,RPLF,≤ 0.25
13,HFCM,1.37
14,EHVT,≤ 0.25
15,SFKT,≤ 0.25
16,YGEY,≤ 0.25
17,PFNT,≤ 0.25
18,GFGD,≤ 0.25
19,ESLG,≤ 0.25
20,LQCS,≤ 0.25
21,ILQC,≤ 0.25
22,DHPH,≤ 0.25
23,QWCI,≤ 0.25
24,TWMM,≤ 0.25
25,YFIQ,≤ 0.25

row,Variant,enrichment ratio
1,IMAI,≤ 0.25
2,TSND,2.63
3,VNKI,≤ 0.25
4,RNPQ,≤ 0.25
5,SMCN,4.13
6,KFFE,≤ 0.25
7,SYEM,≤ 0.25
8,VEGT,≤ 0.25
9,TERM,≤ 0.25
10,PGPV,≤ 0.25
11,NWKA,≤ 0.25
12,QCNK,≤ 0.25
13,GIPI,≤ 0.25
14,THHC,≤ 0.25
15,MKHI,≤ 0.25
16,EHSD,≤ 0.25
17,SKRA,≤ 0.25
18,VDNH,≤ 0.25
19,NTHN,≤ 0.25
20,MRYA,≤ 0.25
21,ILMF,≤ 0.25
22,RLLG,≤ 0.25
23,VDQM,≤ 0.25
24,GFGK,≤ 0.25
25,PEGQ,≤ 0.25

row,Variant,enrichment ratio
1,EENN,≤ 0.25
2,GIIS,1.55
3,NRMG,≤ 0.25
4,DMDM,≤ 0.25
5,AGCI,14
6,FNCV,≤ 0.25
7,VPHS,≤ 0.25
8,PQCD,≤ 0.25
9,TSCQ,21.3
10,RSFT,≤ 0.25
11,PLTI,≤ 0.25
12,PQLK,≤ 0.25
13,TPLS,≤ 0.25
14,RRLR,≤ 0.25
15,VMEG,≤ 0.25
16,HHYN,≤ 0.25
17,SWGP,≤ 0.25
18,VPPW,≤ 0.25
19,IEWE,≤ 0.25
20,VKDR,≤ 0.25
21,PAGV,≤ 0.25
22,PCRH,≤ 0.25
23,NFDP,≤ 0.25
24,IGNS,≤ 0.25
25,AKTK,≤ 0.25

row,Variant,enrichment ratio
1,FLVF,≤ 0.25
2,DYPM,≤ 0.25
3,HKCG,≤ 0.25
4,HSKA,≤ 0.25
5,RAYA,≤ 0.25
6,AGFM,2.22
7,TIMW,≤ 0.25
8,DVLM,≤ 0.25
9,PSII,≤ 0.25
10,WAMG,≤ 0.25
11,KPLF,≤ 0.25
12,VMPF,≤ 0.25
13,IHEI,≤ 0.25
14,SARQ,≤ 0.25
15,DGTM,≤ 0.25
16,LLCA,≤ 0.25
17,HWTP,≤ 0.25
18,DTFP,≤ 0.25
19,RCLW,≤ 0.25
20,ESLI,0.353
